# About 14,000 (4.5%) of roughly 310,000 compounds showed an effect of 50% or more. The effect is printed as a negative number. The list shows a part of the results.
# Molecular target: human ether-à-go-go-related gene (hERG) potassium channel (human, UniProt Q12809)
# Test: primary screen, population patch clamp on CHO cells stably expressing hERG
# 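Note: peak tail current of the secondary pulse compared with the same well before compound.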
# human ether-à-go-go-related gene (hERG) potassium channel, sequence (Q12809 whole entry, looked up): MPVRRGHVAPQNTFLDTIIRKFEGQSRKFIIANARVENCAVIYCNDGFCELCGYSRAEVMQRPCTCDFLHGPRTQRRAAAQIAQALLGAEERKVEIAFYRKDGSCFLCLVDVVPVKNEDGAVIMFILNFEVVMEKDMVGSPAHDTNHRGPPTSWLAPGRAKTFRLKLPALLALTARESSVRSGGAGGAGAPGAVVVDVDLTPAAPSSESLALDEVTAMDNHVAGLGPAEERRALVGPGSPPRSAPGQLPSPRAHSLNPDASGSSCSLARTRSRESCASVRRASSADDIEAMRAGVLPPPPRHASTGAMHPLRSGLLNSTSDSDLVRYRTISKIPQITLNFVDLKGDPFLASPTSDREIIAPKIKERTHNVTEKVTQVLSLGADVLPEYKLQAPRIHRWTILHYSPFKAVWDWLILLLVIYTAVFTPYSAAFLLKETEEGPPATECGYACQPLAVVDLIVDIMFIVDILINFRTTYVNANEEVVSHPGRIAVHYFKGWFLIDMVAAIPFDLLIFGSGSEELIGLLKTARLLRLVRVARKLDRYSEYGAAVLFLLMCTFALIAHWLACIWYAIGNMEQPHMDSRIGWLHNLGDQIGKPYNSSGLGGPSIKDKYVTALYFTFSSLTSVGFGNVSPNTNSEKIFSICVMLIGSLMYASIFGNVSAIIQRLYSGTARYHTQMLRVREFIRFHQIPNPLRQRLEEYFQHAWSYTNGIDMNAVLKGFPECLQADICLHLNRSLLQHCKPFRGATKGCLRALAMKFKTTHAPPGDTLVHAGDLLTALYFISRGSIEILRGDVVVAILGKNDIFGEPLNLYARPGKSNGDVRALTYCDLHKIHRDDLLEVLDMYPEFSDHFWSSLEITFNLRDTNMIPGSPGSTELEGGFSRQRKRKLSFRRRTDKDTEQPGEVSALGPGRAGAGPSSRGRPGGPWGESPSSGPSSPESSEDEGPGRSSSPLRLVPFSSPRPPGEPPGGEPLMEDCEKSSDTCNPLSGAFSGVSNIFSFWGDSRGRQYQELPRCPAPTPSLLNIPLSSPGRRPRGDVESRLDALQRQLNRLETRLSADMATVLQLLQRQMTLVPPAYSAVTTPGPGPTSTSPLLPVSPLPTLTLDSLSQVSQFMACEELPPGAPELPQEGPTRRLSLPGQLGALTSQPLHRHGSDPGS
row,Structure (SMILES),"hERG current change (%, negative = inhibition) at 10uM [%]"
1,CCCN1CCN(S(=O)(=O)c2ccc(OC)c(Br)c2)CC1,-3.75
2,O=C(COc1cccnc1[N+](=O)[O-])Nc1cccc2ccccc12,6.49
3,Cc1nc2c(=O)n(-c3cccc(C(F)(F)F)c3)nc(C)c2s1,10
4,Cc1ccc(C(=O)N/C(=C/c2ccco2)C(=O)N2CCCCC2)cc1,-30.3
5,CCc1ccc(NC(=O)CSc2nnc(C)c(=O)n2N)cc1,11.6
6,Cc1cccc(-n2c(C)nc3ccsc3c2=O)c1,19.7
7,Cc1sc2nc(CSc3nnnn3-c3ccc(Cl)cc3)[nH]c(=O)c2c1C,-6.71
8,CN1CCN(c2c[nH]c(=O)[nH]c2=O)CC1,-6.88
9,CC1=C(C)CC(C(=O)NNC(=O)c2cccc(Cl)c2)C(C(=O)O)C1 (stereo not shown),12.3
10,Cc1ccc(NC(=O)CSc2nnc(CNC(=O)c3ccco3)o2)cc1Cl,-0.744
11,Cc1nc2oc3c(NCc4ccccn4)ncnc3c2c2c1COC(C)(C)C2,-0.387
12,COc1ccc(C(=O)C2CCCN(Cc3ccc(C#CCCO)cc3)C2)cc1F (stereo not shown),-45.3
13,Cc1ccc(CNS(=O)(=O)c2ccc(-n3cnnn3)c(C)c2)cc1,-2.6
14,CCC(C(=O)NC1CCCC1)N(C(=O)c1snc(C(N)=O)c1N)c1ccc(OC)cc1 (stereo not shown),22.4
15,O=C(Cn1nnc2ccccc21)NNC(=S)NC1CCCCC1,20.3
16,Cc1cc(C)c2sc(N(CCCN(C)C)C(=O)c3ccc(S(=O)(=O)N4CCCc5ccccc54)cc3)nc2c1.Cl,0.702
17,COc1cccc(CC(=O)Nc2nc3ccccc3[nH]2)c1,10.7
18,NC(=O)CCNC(=O)c1ccc(Cl)cc1,11.1
19,O=C(O)C1C2C=CC(C2)C1C(=O)Nc1cccc(F)c1 (stereo not shown),7.94
20,O=C(Nc1c2c(nc3ccccc13)CCCC2)c1ccccc1F,-3
21,O=C(C[n+]1ccc2c(c1)nnn2-c1ccccc1)c1ccc(Cl)cc1.[Br-],-69
22,Cl.Fc1ccc(Nc2ncnc3ccccc23)cc1,10.7

row,Structure (SMILES),"hERG current change (%, negative = inhibition) at 10uM [%]"
1,CC(C)(C)OC(=O)N1CC(O)CC1C(=O)OCC(=O)c1ccc(-c2ccccc2)cc1 (stereo not shown),32
2,NC(=O)CSc1nnc(NC(=O)c2ccc(S(=O)(=O)N3CCCCC3)cc2)s1,-21
3,CCCCn1c(=O)[nH]c(=O)c2c1nc(-c1ccc(OC)c(Br)c1)n2CC(C)C,9.25
4,CCN1C(=O)C(O)(CC(=O)c2ccc(-n3cccc3)cc2)c2ccccc21 (stereo not shown),-13.1
5,COc1ccc2nc(SCC(=O)c3ccco3)[nH]c2c1,7.37
6,COC(=O)CC1C(=O)NCCN1C(=S)Nc1ccccc1 (stereo not shown),-2.53
7,CC12CN3CC(C)(CN(C1)C3c1ccc(Cl)cc1Cl)C2=O (stereo not shown),-10.5
8,CC(=O)N(CCc1ccccc1C)Cc1cc2cc(C)ccc2[nH]c1=O,25.3
9,CCCC[C@@H]1CNCCN1CCCc1cc(OC)c(OC)c(OC)c1,7.6
10,Cc1nn(C(C)C(=O)NCCCN(Cc2ccccc2)C(C)C)c(=O)c2c1sc1ccccc12 (stereo not shown),-11.7
11,COc1ccc(-c2cc3nc(C)n(N)c(=O)c3s2)cc1,5.36
12,COc1cccc(N2CCN(Cc3ccc(Cl)cc3)CC2)c1,-29.2
13,Cc1ccc2nc(-c3cc(N)cc(N)c3)oc2c1,7.93
14,Clc1ccccc1Cn1nnc2ccccc21,1.76
15,CCSc1nc2c(c(=O)[nH]1)C(c1ccccn1)C1=C(CC(C)(C)CC1=O)N2 (stereo not shown),-0.449
16,CC(C)CC(=O)NCCNC(=O)c1cc(OCC(F)(F)F)ccc1OCC(F)(F)F,1.39
17,N#CCCN(C(=O)COC(=O)c1ccc(S(=O)(=O)N2CCCCCC2)cc1)c1ccccc1,-2.66
18,COc1cc(CCC(=O)OCc2ccccc2C#N)cc(OC)c1OC,7.42
19,COC(=O)C1=C(c2cccc(OCc3ccccc3)c2)C[C@@H]2CC[C@H]1N2C(=O)NCc1ccc(N(C)C)cc1,15.6
20,COc1ccc(C(=O)CSc2nnc(CN3CCCCC3)n2-c2ccc(F)cc2)cc1OC,6.33
21,Br.CCCn1c(=N)n(CC(=O)c2ccc(Cl)cc2)c2ccccc21,-53
22,CSC1=C(C#N)C(c2ccccc2Cl)C(C(=O)c2cccs2)C(O)(C(F)(F)F)N1 (stereo not shown),-9.6

row,Structure (SMILES),"hERG current change (%, negative = inhibition) at 10uM [%]"
1,COc1ccc2[nH]c(C)c(CCN3CCC(=O)C(C)C3C)c2c1.Cl (stereo not shown),-21.5
2,COc1ccc(C2C(C(=O)N3CCOCC3)CCC(=O)N2c2cc(OC)c(OC)c(OC)c2)cc1 (stereo not shown),17
3,COC(=O)CCc1c(C)c(C(=O)c2cc(OC)c(OC)c(OC)c2)c2ccccn12,-34.2
4,CCOc1ccccc1NC(=O)CN(c1ccc(C)cc1)S(=O)(=O)c1c(C)noc1C,-7.79
5,O=C1CCC(C(=O)N(c2ccccc2)C2(C(=O)NC3CCCCC3)CCCCC2)N1 (stereo not shown),3.99
6,CSc1nc2nccc(-c3ccc(Oc4ccccc4)cc3)n2n1,-6.04
7,Cc1ccc(C)c(CN2CCC(n3nnc4cc(F)ccc43)CC2)c1,-21.2
8,Cc1cc(C)c(C)c(S(=O)(=O)N2CCC(C(=O)NCc3ccco3)CC2)c1C,-43.5
9,C=CCN(CC=C)C(=O)COC(=O)c1n[nH]c2ccccc12,-12
10,CCc1c(O)nc(SCC(=O)Nc2nc3ccccc3s2)n(-c2ccccc2)c1=O,5.52
11,CCCCc1nc2ccccc2c(NC(=O)CNC(C)(C)C)c1CCC.O=C(O)C(=O)O,-18.1
12,O=C(NC1CCCCC1)N(CCO)Cc1cc2cc3c(cc2[nH]c1=O)OCCO3,11.1
13,O=C(NCc1ccc2c(c1)OCO2)c1cc(-n2cnnc2)ccc1Cl,-22.5
14,COc1ccc(CCNC(=O)/C(=C/c2cccnc2)NC(=O)c2ccccc2)cc1,-47.2
15,CN(c1cccc(NC(=O)c2ccc(C(C)(C)C)cc2)c1)S(C)(=O)=O,-44.5
16,COc1ccc(CNC(=O)Cn2cc(C(F)(F)F)ccc2=O)cc1,4.41
17,Nc1ncncc1-c1ccc(Cl)cc1,1.28
18,COc1ccc(Cl)cc1NC(=O)c1cc(-c2ccccc2O)n[nH]1,6.66
19,Oc1c(/C=C/C=C/C=Nc2ccccc2)sc(=S)n1Cc1ccccc1,-5.14
20,O=C(CN1CCN(c2ccccn2)CC1)N1CCc2ccccc21,0.247
21,COc1ccccc1CNCC(=O)Nc1ccc(N2CCOCC2)cc1.O=C(O)C(=O)O,1.57
22,CCC(Oc1ccccc1)C(=O)Nc1nnc(S(=O)(=O)N2CCCCC2)s1 (stereo not shown),12.8

row,Structure (SMILES),"hERG current change (%, negative = inhibition) at 10uM [%]"
1,COC(=O)C1=C(c2ccc(-c3ccccc3)c(F)c2)C[C@@H]2CC[C@H]1N2C(=O)NCCCOC(C)C,-8.7
2,Cc1ccccc1NC(=O)COC(=O)C1CC2CCCC(C1)C2=O (stereo not shown),11.3
3,Cc1cc(NC(=O)/C(C#N)=C/c2ccc(-c3ccc(SC(F)F)cc3)o2)n(-c2ccccc2)n1,10.3
4,COc1cccc(OC)c1OCCCCCCN1CCN(C)CC1.Cl,8.54
5,COc1ccc2nnc(-c3ccc(C(F)(F)F)cc3)n2n1,1.99
6,COc1cccc2cc(C(=O)NCc3ccco3)c(=O)oc12,2.32
7,O=C(/C=C/c1c(Cl)cccc1Cl)Nc1ccncc1,2.18
8,COC(=O)CSc1nc(C)cc(N2CCOCC2)n1,7.89
9,O=C1CC(=O)Nc2cc(S(=O)(=O)N3CCN(c4cccc(C(F)(F)F)c4)CC3)ccc2N1,-11.3
10,COC(=O)c1sccc1N(C)S(C)(=O)=O,22.7
11,COc1ccc(C(=O)C2CCCN(Cc3cn[nH]c3-c3ccc(F)cc3)C2)cc1OC (stereo not shown),-66.5
12,Brc1cc2c(cc1/C=N/Nc1nc(N3CCOCC3)nc(N3CCOCC3)n1)OCO2,-5
13,C1CCC2(CC1)C1=C(CCCC1)Nc1nnnn12,-2.9
14,COc1ccc(NC(=O)C(CCSC)NC(N)=O)cc1NS(=O)(=O)c1ccc(F)cc1 (stereo not shown),24.7
15,CC(=O)NC1=NN(C(C)=O)C(C)(c2ccc(C)cc2)S1 (stereo not shown),8.82
16,COC(=O)c1sccc1NC(=O)CC1C(=O)NCCN1C(=O)c1ccc(N(C)C)cc1 (stereo not shown),7.57
17,N#CCC(=O)Nc1ccc(C(=O)Nc2cccc(S(N)(=O)=O)c2)cc1,29
18,CC(C)c1ccc(-n2nc3ccc(N)cc3n2)cc1,-2.17
19,CC1CCCN(CCCNC(=O)C2CC(=O)N(c3ccc(F)c(Cl)c3)C2)C1 (stereo not shown),-37.9
20,CCCNc1c(NC(=O)c2cccs2)c(=O)oc2ccccc12,13.3
21,Cc1oc2ccc(O)cc2c1C(=O)OC(C)C,4.47
22,O=C(O)COc1ccccc1/C=C1\SC(=S)N(/N=C/c2ccccc2O)C1=O,38.2
